# In all, about 310,000 compounds went through this assay and about 2,200 (0.71%) showed an effect of 50% or more. Effects have a minus sign here. The list shows a part of the results.
# Target: human ether-à-go-go-related gene (hERG) potassium channel (human, UniProt Q12809)
# Assay: primary screen, population patch clamp on CHO cells stably expressing hERG
# Sequence of human ether-à-go-go-related gene (hERG) potassium channel (Q12809 whole entry, looked up): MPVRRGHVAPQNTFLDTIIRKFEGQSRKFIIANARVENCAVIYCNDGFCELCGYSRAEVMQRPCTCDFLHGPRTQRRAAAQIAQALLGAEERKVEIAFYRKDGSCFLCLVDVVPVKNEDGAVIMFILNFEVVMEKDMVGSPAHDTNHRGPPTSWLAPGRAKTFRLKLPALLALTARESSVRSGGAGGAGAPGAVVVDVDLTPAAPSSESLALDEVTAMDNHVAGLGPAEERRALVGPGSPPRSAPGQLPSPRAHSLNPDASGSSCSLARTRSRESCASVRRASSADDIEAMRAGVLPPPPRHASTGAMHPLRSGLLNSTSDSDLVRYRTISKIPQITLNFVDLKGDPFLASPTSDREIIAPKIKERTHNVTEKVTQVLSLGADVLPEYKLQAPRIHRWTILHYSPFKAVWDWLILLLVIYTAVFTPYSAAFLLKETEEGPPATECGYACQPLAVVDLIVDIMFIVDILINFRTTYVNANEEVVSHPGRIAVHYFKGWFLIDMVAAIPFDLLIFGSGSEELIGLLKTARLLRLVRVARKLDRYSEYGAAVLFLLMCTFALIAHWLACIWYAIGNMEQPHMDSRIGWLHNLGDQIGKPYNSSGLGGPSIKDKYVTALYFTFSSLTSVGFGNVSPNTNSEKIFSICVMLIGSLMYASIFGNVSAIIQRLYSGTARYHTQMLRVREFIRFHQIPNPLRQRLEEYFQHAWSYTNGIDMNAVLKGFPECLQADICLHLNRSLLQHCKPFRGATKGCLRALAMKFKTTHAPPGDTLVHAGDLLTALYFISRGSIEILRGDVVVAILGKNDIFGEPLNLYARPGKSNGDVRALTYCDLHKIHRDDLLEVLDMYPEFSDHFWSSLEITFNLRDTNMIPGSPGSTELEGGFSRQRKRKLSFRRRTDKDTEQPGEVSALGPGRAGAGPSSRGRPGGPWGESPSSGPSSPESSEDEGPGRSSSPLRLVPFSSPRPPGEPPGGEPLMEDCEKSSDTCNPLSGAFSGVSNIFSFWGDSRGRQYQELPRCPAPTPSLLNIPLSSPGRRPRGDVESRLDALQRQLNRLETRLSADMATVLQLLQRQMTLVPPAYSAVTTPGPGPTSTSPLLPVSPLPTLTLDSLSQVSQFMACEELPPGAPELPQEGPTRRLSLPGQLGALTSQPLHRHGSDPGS
row,Structure (SMILES),"hERG current change (%, negative = inhibition) at 1uM"
1,COc1ccc(CCN2C(=O)N(c3ccc(OC)cc3)C(=O)C2CC(=O)Nc2ccc(OC)cc2)cc1 (stereo not drawn),9.38%
2,CC(C)C(NC(=O)c1ccccc1)C(=O)OCn1nnc2ccccc2c1=O (stereo not drawn),8.75%
3,Cc1cc(NC(=O)CSc2ncn[nH]2)no1,-0.461%
4,CCn1c(=O)cc(SCC(=O)NCc2ccc(C)cc2)c2ccccc21,7.4%
5,COc1cccc(C2c3c(-c4ccccc4)n[nH]c3C(=O)N2c2ccc(C(=O)O)cc2)c1 (stereo not drawn),5.23%
6,CC(C(=O)N1CCCc2ccccc21)N1CCN(c2ccccn2)CC1 (stereo not drawn),14.3%
7,COCCNC(=O)c1c(N)n(CCC2=CCCCC2)c2nc3ccccc3nc12,8.78%
8,O=C1c2cccc3c2N(CCC3)C(=O)C1(F)c1ccccc1 (stereo not drawn),10.7%
9,CC(=O)Nc1ccc(/C=C/c2noc(-c3ccccc3O)n2)cc1,21.1%
10,O=C(Nc1ccccc1N1CCCC1)c1ccc2c(c1)OCO2,6.41%
11,COc1ccc(S(=O)(=O)N2c3ccccc3OCC2c2ccccc2)cc1 (stereo not drawn),13.3%
12,O=C(CSc1ccc(Cl)cc1)N1CCN(c2ncc(C(F)(F)F)cc2Cl)CC1,1.46%
13,CC(C)[C@H]1C(=O)Nc2ccccc2N1C(=O)N[C@@H](Cc1ccccc1)C(=O)N[C@@H](C(=O)O)c1ccccc1,3.63%
14,COc1cc(OC)cc(C(=O)NCCOc2ccccc2)c1,-6.82%
15,O=C(O)c1ccc2cccc(Cl)c2c1O,13.2%
16,C[C@@H]1C=C(C(=O)NCc2nc3ccccc3[nH]2)O[C@H](OCCCCO)C1,6.25%
17,CC(C)(C)n1cnnc1Sc1ncccc1[N+](=O)[O-],12.3%
18,O=C(COc1ccc(Cl)cc1)NNC(=O)c1cccnc1,8.29%
19,COc1cc(O)c(C(CC(=O)N2CCCC2)c2cc(OC)c(OC)c(OC)c2)c(OC)c1 (stereo not drawn),16.4%

row,Structure (SMILES),"hERG current change (%, negative = inhibition) at 1uM"
1,CC(C)CCNC(=O)C1CCC(CNS(=O)(=O)c2cccc3nsnc23)CC1 (stereo not drawn),10.4%
2,CC(=O)Nc1ccc(S(=O)(=O)Nc2ccccc2N2CCOCC2)cc1,6.27%
3,CC1(C(=O)NCc2ccc(Cl)c(Cl)c2)Oc2cccnc2NC1=O (stereo not drawn),0.52%
4,Cc1nc2nc(-c3ccco3)nn2c(C)c1Cl,12.5%
5,COc1ccc(NC(=O)CN2CC=C(c3ccccc3)CC2)cc1S(=O)(=O)N1CCOCC1,11.2%
6,Cc1csc(NC(=O)c2cc3ccccc3o2)n1,6.86%
7,O=C(CCC(=O)N1CCOc2ccccc21)NCCCN1CCCCC1,13%
8,O=C(CCNS(=O)(=O)c1ccccc1C(F)(F)F)N1CCCCCCC1,2.12%
9,CSc1ccccc1OCc1cc(C(=O)N2CCCC(C)C2)no1 (stereo not drawn),16.1%
10,COc1cccc(C(=O)N(c2ccc(C)cc2)C2C=CS(=O)(=O)C2)c1 (stereo not drawn),-4.12%
11,O=c1ncn(-c2cccc(Cl)c2)c2ccccc12,2.16%
12,Cc1cc(NO)nc(-c2ccc(Br)cc2)n1,8.03%
13,COC(=O)c1sccc1-n1cccc1C(=O)C(=O)Nc1ccc(F)cc1,-11.6%
14,COc1ccc(N(C)C(=O)c2cn(CC(C)C)c(=O)c3cc(OC)c(OC)cc23)cc1,9.76%
15,CCOC(=O)COc1ccc(C(=O)c2ccccc2)c(O)c1,8.13%
16,C/C(=N\Nc1nncc2ccccc12)c1ccc(O)cc1,13.1%
17,COC(=O)c1cc(NC(=O)c2ccc(C)cc2)c(=O)oc1C,19.3%
18,CCn1nc(NC(=O)c2ccco2)c2cc3cc(C)ccc3nc21,13.8%
19,COCCCNC(=O)c1cc2c(s1)CS(=O)(=O)C2,6.02%

row,Structure (SMILES),"hERG current change (%, negative = inhibition) at 1uM"
1,O=S(=O)(Cc1ccc(Cl)cc1)N1CCN(Cc2ccc3c(c2)OCO3)CC1,11.5%
2,Cc1cc(C)cc(N2CC(C(=O)O)CC2=O)c1 (stereo not drawn),14.2%
3,COc1ccccc1NC(=O)C1=C(C)Nc2nc(CCCO)nn2C1c1ccc2c(c1)OCO2 (stereo not drawn),6.53%
4,Cc1ccc(CNC(=O)Cn2ccc(NC(=O)OCc3ccccc3)nc2=O)o1,6.84%
5,O=C(NCc1ccccn1)c1ccc(Cn2c(=S)[nH]c3ccccc3c2=O)cc1,-5.05%
6,O=C(Cc1ccccc1)Nc1ccc2c(c1)C(=O)N(CC1CCCO1)C2=O (stereo not drawn),8.23%
7,COc1ccccc1N1CCN(C(=O)c2cc3c(=O)n4ccccc4nc3s2)CC1.Cl,10.6%
8,Cc1ccc2cc(C)c(NCCO)nc2c1,9.76%
9,CC(=O)Nc1sc(C)c(C)c1C(=O)OCC(=O)N(C)c1c(N)n(Cc2ccccc2)c(=O)[nH]c1=O,13.4%
10,CCOc1ccc(C(C)=O)cc1CN1C(=O)NC2(CCCCCCC2)C1=O,-51.8%
11,CC1=C(C(=O)OC(C)C)C(c2ccc(Br)s2)NC(=O)N1 (stereo not drawn),-9.32%
12,O=S(=O)(c1ccccc1)c1cnn2c(C(F)(F)F)cc(-c3ccccc3)nc12,-12.6%
13,CSc1nc2[nH]c3c(c2c2ncnn12)CCCC3,2.58%
14,Cc1cccc(CC(C)NC(=O)CCc2nnc(-c3ccccc3)o2)n1 (stereo not drawn),4.96%
15,COc1ccc(OC)c(NC(=O)CSc2nnc(C3CCCCC3)o2)c1,-2.71%
16,O=C(Nc1ccc(Cl)cc1Cl)c1ccc(-c2ccccc2)cc1,11%
17,CCOC(=O)N1CCN(C(=O)c2ccc(CS(=O)(=O)c3ccc(OC)cc3)o2)CC1,-1.14%
18,COC(=O)c1ccc(NC(=O)CN2C(=O)CSC2=O)cc1,3.75%
19,Cc1noc(C)c1COC(=O)[C@@H](NC(=O)c1ccccc1)C(C)C,6.45%

# — paper PMC4336329 (PLoS ONE, 2015)
